Data: PubChem BioAssay AID1460 (National Center for Advancing Translational Sciences (NCATS), 2008)
Several values for one entry are separate records, joined by “and”; a condition that tells them apart may be missing. Equal entries are not always repeated. Among all 270,000 compounds or so, about 5,800 (2.1%) were called active. Inconclusive means that the source gave no clear call. Such entries were picked first, then a sample of the others. The call rests on the fitted dose curve; in most records, active means well fitted inhibition curve with a large enough effect; inconclusive means small, poorly fitted or top-dose-only effect; inactive means flat fitted curve, though single readings scatter. A potency beside an inconclusive call is a rough fit, not a confirmed value.

Molecular target: Microtubule-associated protein tau (Homo sapiens) (UniProt P10636)
UniProt P10636, sequence (P10636 whole entry, looked up): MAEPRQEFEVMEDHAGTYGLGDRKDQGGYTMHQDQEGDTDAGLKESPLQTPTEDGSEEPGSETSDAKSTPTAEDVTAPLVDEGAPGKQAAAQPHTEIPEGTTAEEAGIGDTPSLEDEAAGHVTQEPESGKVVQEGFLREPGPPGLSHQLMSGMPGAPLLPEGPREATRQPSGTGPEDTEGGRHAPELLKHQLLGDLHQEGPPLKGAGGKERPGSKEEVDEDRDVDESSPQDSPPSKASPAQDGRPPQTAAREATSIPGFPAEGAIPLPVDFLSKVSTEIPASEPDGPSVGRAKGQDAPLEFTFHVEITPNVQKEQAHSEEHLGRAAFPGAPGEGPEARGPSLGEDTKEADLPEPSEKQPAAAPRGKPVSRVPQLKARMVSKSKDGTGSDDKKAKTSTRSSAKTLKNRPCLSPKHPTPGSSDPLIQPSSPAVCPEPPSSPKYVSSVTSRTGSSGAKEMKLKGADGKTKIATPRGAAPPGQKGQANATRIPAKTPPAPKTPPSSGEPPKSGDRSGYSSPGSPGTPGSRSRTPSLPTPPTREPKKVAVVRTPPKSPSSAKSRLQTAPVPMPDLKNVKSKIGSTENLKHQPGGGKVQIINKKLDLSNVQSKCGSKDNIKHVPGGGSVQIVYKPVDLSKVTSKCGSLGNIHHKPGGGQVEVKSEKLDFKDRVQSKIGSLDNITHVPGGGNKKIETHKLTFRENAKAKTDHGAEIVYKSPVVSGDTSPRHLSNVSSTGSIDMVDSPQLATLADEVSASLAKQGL
Test: qHTS for Inhibitors of Tau Fibril Formation, Thioflavin T Binding; further: nearly all actives have a fitted effect of over 55% in size
Settings: recombinant tau K18 P301L, heparin-induced fibrillization, ThT fluorescence; series mostly up to 57.4 µM; activity, negative = inhibition: at the top concentration
In short: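 Using a mix of unlabeled (15 uM) and Alexa 594-labeled (0.24 uM) tau K18 P301L, heparin-triggered fibrillization over 6 hr at 37 C was scored by ThT fluorescence.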
On the % scale 0 is the no-effect control and ±100 the full control effect; potency means the concentration at half of the fitted maximal effect; tags describe the fitted curve by direction and shape.

Row | Compound | activity, negative = inhibition | Potency
1 | N#Cc1nc(-c2ccco2)oc1NCCCN1CCOCC1 | inactive: -2.7% | –
2 | CCOc1ccc(C(=O)NC(=S)Nc2ccc(N3CCC(C)CC3)cc2)cc1[N+](=O)[O-] | – | inconclusive: 1.58 µM [inhibitor, full curve]
3 | COC(=O)c1cc(C)nc2c1c(=O)nc(SCc1c(C)cc(C)cc1C)n2C1CC1 | – | inconclusive: 25.1 µM [inhibitor, single point]
4 | Cc1cc(Cc2cc(C)c(N)cc2C)c(C)cc1N | inactive: -8.67% | –
5 | CCOc1ccc(C(NC(=O)c2cc(OC)c(OC)c(OC)c2)c2cc(Cl)c3cccnc3c2O)cc1 (stereo not drawn) | inactive: 4.92% | –
6 | CC(=O)Nc1cccc(C2=CC(c3ccco3)n3ncnc3N2)c1 (stereo not drawn) | – | inconclusive: 39.8 µM [activator, single point]
7 | Cc1ccc([C@@H]2C[C@H]3CN(Cc4cccc(Cl)c4)C(=O)[C@]34CCCN24)o1 | – | inconclusive: 12.6 µM [inhibitor, partial curve]
8 | CCc1nnc(NC(=O)c2c(O)c3c([nH]c2=O)CCCC3)s1 | – | inconclusive: 3.55 µM [inhibitor, partial curve]
9 | CC(C)CNS(=O)(=O)c1ccc(CCC(=O)NCc2ccco2)cc1 | – | inconclusive: 31.6 µM [inhibitor, single point]
10 | N#CC1=C(N)n2c(s/c(=C\c3cccs3)c2=O)=C(C#N)C1c1cccs1 (stereo not drawn) | – | inconclusive: 15.8 µM [inhibitor, partial curve]
11 | O=C(NCc1ccc(F)cc1)c1ccc(N2CCc3ccccc32)c([N+](=O)[O-])c1 | – | inconclusive: 3.55 µM [inhibitor, full curve]
12 | N#CC1=C(N)Oc2n[nH]c(-c3ccccn3)c2C1c1c(F)cccc1Cl (stereo not drawn) | inactive: -9.54% | –
13 | Cc1nc2ccc(NC(=O)CCS(=O)(=O)c3ccc(Cl)cc3)cc2s1 | – | inconclusive: 15.8 µM [inhibitor, single point]
14 | CCCN(C(=O)c1cn(CC(C)C)c(=O)c2cc(OC)c(OC)cc12)c1cccc(C)c1 | – | inconclusive: 0.0251 µM [inhibitor, full curve, poor fit]
15 | O=C1c2cc(Cl)ccc2OC2(CCNCC2)C12CC(c1ccc(Cl)cc1)=NO2 (stereo not drawn) | – | inconclusive: 39.8 µM [inhibitor, single point]
16 | CCOC(=O)/C(C#N)=C/c1cc2ccc(C)cc2nc1Cl | – | inconclusive: 15.8 µM [inhibitor, partial curve]
17 | CCC(CC)c1nn2cc(-c3ccccc3)nc2s1 | – | inconclusive: 3.16 µM [inhibitor, full curve, poor fit]
18 | CSc1cccc(NC(=O)/C=C/c2ccc(Cl)cc2)c1 | – | inconclusive: 39.8 µM [activator, single point]
19 | COc1cnc(-c2ccccn2)nc1Sc1ccccc1 | – | inconclusive: 22.4 µM [inhibitor, single point]
20 | Cc1cccc(C)c1OCC(=O)Nc1ccc(NC(=O)c2ccco2)cc1 | inactive: -15.2% | –
21 | CN(C)/N=C/c1cc(Cl)cc([N+](=O)[O-])c1O | – | active: 15.8 µM
22 | CCC(=O)Nc1nnc(S(=O)(=O)N2CCCCCC2)s1 | – | inconclusive: 7.94 µM [inhibitor, partial curve]
23 | CCOC(=O)c1cc2c(=O)n3ccccc3nc2n(Cc2ccco2)c1=NC(=O)c1ccc(OC)cc1OC | – | inconclusive: 15.8 µM [inhibitor, partial curve, poor fit]

Row | Compound | activity, negative = inhibition | Potency
24 | COc1cc(NC(=S)NCc2ccco2)cc(OC)c1OC | inactive: 10.5% | –
25 | CN1CCN(c2ccc(Cl)cc2NC(=O)CCN2C(=O)c3ccccc3C2=O)CC1 | – | inconclusive: 12.6 µM [inhibitor, partial curve]
26 | COc1ccc(-c2nc3ccccn3c2/N=C/c2ccc(OC)c(OC)c2)cc1O | – | inconclusive: 12.6 µM [inhibitor, partial curve]
27 | COc1ccccc1NC(=O)Nc1ccc2c(c1)OCCO2 | – | inconclusive: 0.708 µM [inhibitor, full curve]
28 | O=C(O)c1ccccc1C(=O)N1CCN(c2ccccc2)CC1 | inactive: 7.43% | –
29 | O=C1C(=O)N(c2cccc(Cl)c2)C(c2ccccc2[N+](=O)[O-])/C1=C(\O)c1ccccc1 (stereo not drawn) | – | inconclusive: 14.1 µM [inhibitor, partial curve]
30 | COC(=O)c1ccc(NC(=O)CN(c2cccc(C(F)(F)F)c2)S(C)(=O)=O)cc1 | inactive: 9.93% | –
31 | CCN1/C(=C/C(C)=O)Sc2ccc(OC)cc21 | – | inactive and inconclusive: 15.8 µM [inhibitor, partial curve]
32 | CC(C)=CCCC1(C)C=Cc2c(c(C)cc3c2[nH]c2cc(O)ccc23)O1 (stereo not drawn) | – | active: 28.2 µM
33 | Cc1ccc(NC(=O)COCc2cc(-c3cccs3)on2)cc1Cl | – | inconclusive: 0.447 µM [inhibitor, partial curve]
34 | COC(=O)N[C@@H](c1ccc(Br)cc1)C(C(=O)OC)C(=O)OC | inactive: -7.55% | –
35 | Cc1ccc(OCc2ccc(C(=O)Nc3nc4ccccc4n3C)o2)c([N+](=O)[O-])c1 | – | inconclusive: 0.891 µM [inhibitor, full curve, poor fit]
36 | COc1ccc(/C=N/NC(=O)CCn2cnc3ccccc32)cc1 | – | inconclusive: 15.8 µM [inhibitor, partial curve]
37 | CCC(C)n1cnc2c(c1=O)c1nc3ccccc3nc1n2Cc1ccc2c(c1)OCO2 (stereo not drawn) | – | inconclusive: 31.6 µM [inhibitor, partial curve]
38 | N#C/C(=C/c1ccc(F)cc1)C(N)=S | – | inconclusive: 15.8 µM [inhibitor, partial curve]
39 | Cc1ccc2nc(=O)c(NNc3ccccc3)cnc2c1 | – | inconclusive: 12.6 µM [inhibitor, partial curve]
40 | COc1cccc(S(=O)(=O)NCc2ccc(C(=O)NCc3ccco3)cc2)c1 | inactive: -15.7% | –
41 | CCOC(=O)c1c(C)[nH]c(-c2csc(N)n2)c1C | – | active: 25.1 µM
42 | O=C(c1ccc(N2CCN(C3CC(=O)N(Cc4cccs4)C3=O)CC2)cc1)c1cccnc1 (stereo not drawn) | – | inconclusive: 28.2 µM [inhibitor, single point]
43 | CC(C)c1cc(CN2CCOCC2)cc(C(C)C)c1O | – | inconclusive: 39.8 µM [inhibitor, single point]
44 | COc1ccc(/C=C(\CC(=O)O)c2nc3ccccc3s2)cc1O | – | inconclusive: 28.2 µM [inhibitor, partial curve]
45 | O=C(O)c1ccccc1N/N=C/c1c(Sc2nnnn2-c2ccccc2)nc2ccccn2c1=O | – | active: 7.94 µM
46 | C/C(=N\NC(=O)C1CC1)c1cccc(NC(=O)c2cccc(Cl)c2)c1 | – | inconclusive: 14.1 µM [inhibitor, partial curve]

Row | Compound | activity, negative = inhibition | Potency
47 | CCCCC1=CC2=CC(=O)C(C)(OC(=O)CC)C(=O)C2=CN1C1CCCCC1 (stereo not drawn) | inactive: -3.28% [at 11.5 µM] | inconclusive: 3.98 µM [inhibitor, partial curve]
48 | Cc1ccc(C(=O)Nc2nc(C)c(C)s2)o1 | – | inconclusive: 25.1 µM [inhibitor, single point]
49 | Cc1cc(O)c(C(C)C)cc1N=Nc1ccccc1C(=O)O | – | active: 6.31 µM
50 | CCOc1ccc(S(=O)(=O)N2CCN(c3ccc(C)cc3C)CC2)c2ccccc12 | inactive: -12.4% | –
51 | O=C1Nc2ccc([N+](=O)[O-])cc2C1=Nc1cccc(CO)c1 | – | inconclusive: 25.1 µM [inhibitor, partial curve]
52 | Cc1cc(C)cc(NC(=O)c2ccc(Cn3nc(C)c(Cl)c3C)o2)c1 | – | inconclusive: 39.8 µM [inhibitor, single point]
53 | CCC1(C)Cc2c(sc(NC(=S)NC(=O)c3ccccc3)c2C#N)CO1 (stereo not drawn) | inactive: -16% | –
54 | Cc1c(Nc2scc(-c3ccccc3)[n+]2-c2ccccc2)c(=O)n(-c2ccccc2)n1C | – | inconclusive: 28.2 µM [inhibitor, single point]
55 | C/C(CCC(=O)OC[C@H]1O[C@H](C#Cc2ccccc2)C=C[C@@H]1Oc1ccc(C)cc1)=N\O[C@@H](C)CN1CCCCc2nc(C)c(C)cc21 | – | inconclusive: 12.6 µM [inhibitor, partial curve]
56 | O=C(NC1CCS(=O)(=O)C1)C1CCCCN1S(=O)(=O)c1ccc(Cl)cc1 (stereo not drawn) | – | inconclusive: 28.2 µM [inhibitor, single point]
57 | Cc1cc(N2CCN(c3ccccc3)CC2)n2ncnc2n1 | – | inconclusive: 12.6 µM [inhibitor, partial curve]
58 | COc1ccc(N2CCN(Cc3nc(-c4ccc(C)cc4)no3)CC2)cc1 | – | inconclusive: 15.8 µM [inhibitor, partial curve]
59 | CCCCOC(=O)Nc1ccc(N2CCOCC2)cc1 | – | inconclusive: 17.8 µM [inhibitor, partial curve]
60 | COc1ccc(-c2cc(C(=O)OCC(=O)c3ccc(C)c([N+](=O)[O-])c3)c3ccccc3n2)cc1 | inactive: 7.14% | –
61 | Cc1ccc2[nH]c(=O)c(C(c3nnnn3Cc3ccccc3)N3CCc4ccccc43)cc2c1 (stereo not drawn) | – | active: 20 µM
62 | CC1=C(C(N)=O)C(c2ccc(Cl)cc2Cl)n2ncnc2N1 (stereo not drawn) | inactive: 2.48% | –
63 | Cc1ccc(-c2nc3cc(NC(=O)c4cc(Br)ccc4Cl)ccc3o2)cc1 | – | inconclusive: 1.26 µM [inhibitor, full curve, poor fit]
64 | Cc1cc(C)nc(N2CCC(C(=O)N3CCN(c4cc(Cl)ccc4C)CC3)CC2)n1 | – | inconclusive: 20 µM [inhibitor, partial curve]
65 | Cc1ccc(-c2n[nH]c3c2C(c2cccs2)N(c2ccc(Cl)cc2)C3=O)cc1 (stereo not drawn) | – | inconclusive: 4.47 µM [inhibitor, full curve, poor fit]
66 | CCn1cc(C(=O)N2CCN(c3ccccc3F)CC2)c(=O)c2ccc(C)nc21 | inactive: 13.6% | –
67 | Cc1ccc(C)c(C(=O)CSc2nc3cc(C(=O)NC4CCCC4)ccc3c(=O)n2CC2CCCO2)c1 (stereo not drawn) | inactive: -0.342% | –
